Test results taken from article PMC10319797, “Fully co-factor-free ClearTau platform produces seeding-competent Tau fibrils for reconstructing pathological Tau aggregates” (Nature Communications, 2023).

Molecular target: the molecule itself
Test: co-sedimentation; ClearTau reaction: Tau monomer alone in heparin-coated tubes (heparin covalently immobilized, none in solution), 37 °C with orbital shaking, 24-48 h; ultracentrifuged at 100'000 g for 1 h at 4 °C into supernatant and pellet, SDS-PAGE; fibrils also followed by ThS fluorescence, CD and EM; monomer to fibrils

B1: Tau 3R1N (natural protein)
chain: not shown
notes: source: E. coli BL21, purified (protocol similar to 4R2N)
B1: binds.
